In PubChem BioAssay (NCATS):
“And” between values parts separate entries of the source, which are not always exact repeats. Identical values can stand only once. Inconclusive results, whose numbers are uncertain, are shown with a selection of clear calls. Potencies beside an inconclusive call are fits to weak or partial responses and may not hold up. The source made the active and inactive calls. Calls follow the shape of the dose curve; as a rule, active = well fitted curve in the direction sought with a large enough effect; inconclusive = small, poorly fitted or top-dose-only effect, or another doubt; inactive = no such curve, though single readings can be large; an effect the other way counts as inactive or inconclusive.

Legend:
[1] = qHTS of pediatric cancer cell lines to identify multiple opportunities for drug repurposing: Primary screen for DAOY cells (AID 1347090); conditions: DAOY medulloblastoma viability, CellTiter-Glo luminescence, 48 h; activity change, negative = cytotoxic: at 46 µM (top of the series); also: nearly all actives have a fitted effect of over 55% in size;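 as to activity change, negative = cytotoxic: plate controls were DMSO for no effect and bortezomib for full effect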
Outline: (§1)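 Eight- or eleven-point concentration series, 48 h treatment at 37 degrees C in growth media; readout CellTiter-Glo luminescence. Potency and efficacy were taken from the concentration-response curves.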

[2] = qHTS of pediatric cancer cell lines to identify multiple opportunities for drug repurposing: Primary screen for SJ-GBM2 cells (AID 1347091);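 as to activity change, negative = cytotoxic: plate controls were DMSO neutral control for no effect and bortezomib for full effect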
Outline: as §1

[3] = qHTS of pediatric cancer cell lines to identify multiple opportunities for drug repurposing: Primary screen for NB-EBc1 cells (AID 1347095)
Outline: (§2)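 Cells seeded at 500-1,000 cells/well in growth media, rested 5 hours at 37 degrees C, 5% CO2, then dosed; MIPE compounds at 11-point (from 0.78 nM) and NPC at 8-point (from 0.59 nM) final concentrations. Viability by CellTiter-Glo luminescence after 48 hours.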

[4] = qHTS of pediatric cancer cell lines to identify multiple opportunities for drug repurposing: Primary screen for U-2 OS cells (AID 1347096); also: nearly all actives have a fitted effect of over 50% in size;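 as to activity change, negative = cytotoxic: plate controls were DMSO wells for no effect and bortezomib positive control wells for full effect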
Outline: (§3)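 Cells (500-1,000/well) in growth media were settled 5 h at 37 degrees C, then given compounds for 48 h. Viability was read as CellTiter-Glo luminescence. Primary runs used MIPE at 11 points (0.78 nM-46 µM) and NPC at 8 points (0.59 nM-46 µM); follow-ups used 11 points.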

[5] = qHTS of pediatric cancer cell lines to identify multiple opportunities for drug repurposing: Primary screen for Rh18 cells (AID 1347102); also: nearly all actives have a fitted effect of over 65% in size; as to activity change, negative = cytotoxic: % is scaled to controls: 0 for no effect and ±100 for the full control effect
Outline: as §3

[6] = qHTS of pediatric cancer cell lines to identify multiple opportunities for drug repurposing: Primary screen for OHS-50 cells (AID 1347103); also: nearly all actives have a fitted effect of over 40% in size
Outline: (§4)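 Cells (500-1,000/well) rested 5 h, then received compounds for 48 h; metabolically active cells were measured by CellTiter-Glo luminescence. Final concentrations spanned up to 46 µM (MIPE, 11-point) or 0.59 nM-46 µM (NPC, 8-point) in primary screens, 11-point in follow-ups.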

[7] = qHTS of pediatric cancer cell lines to identify multiple opportunities for drug repurposing: Primary screen for control Hh wild type fibroblast cells (AID 1347106); also: nearly all actives have a fitted effect of over 55% in size
Outline: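 Viability after 48 h compound treatment at 37C, 500-1,000 cells/well, read as ATP luminescence with CellTiter-Glo. Primary screens used 11-point (MIPE, 0.78 nM-46 µM) or 8-point (NPC, 0.59 nM-46 µM) final concentrations; follow-up screens used 11-point dilutions.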

[8] = qHTS of pediatric cancer cell lines to identify multiple opportunities for drug repurposing: Primary screen for Rh30 cells (AID 1347107); also: nearly all actives have a fitted effect of over 75% in size; as to activity change, negative = cytotoxic: % is scaled to controls: 0 for no effect and ±100 for the full control effect
Outline: as §3

[9] = qHTS of pediatric cancer cell lines to identify multiple opportunities for drug repurposing: Primary screen for Rh41 cells (AID 1347108); also: nearly all actives have a fitted effect of over 70% in size;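 as to activity change, negative = cytotoxic: luminescence drop marks cytotoxic hits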
Outline: as §2

[10] = qHTS of pediatric cancer cell lines to identify multiple opportunities for drug repurposing: Confirmatory screen for NB1643 cells (AID 1347109); conditions: NB1643 neuroblastoma cell viability; activity change, negative = cytotoxic: at 45.9 µM (top of the series); also: nearly all actives have a fitted effect of over 45% in size
Outline: as §3

[11] = qHTS of pediatric cancer cell lines to identify multiple opportunities for drug repurposing: Primary screen for BT-37 cells (AID 1347094)
Outline: as §2

[12] = qHTS of pediatric cancer cell lines to identify multiple opportunities for drug repurposing: Primary screen for SK-N-SH cells (AID 1347098); also: nearly all actives have a fitted effect of over 65% in size
Outline: as §4

[13] = qHTS of pediatric cancer cell lines to identify multiple opportunities for drug repurposing: Primary screen for NB1643 cells (AID 1347099); also: nearly all actives have a fitted effect of over 50% in size
Outline: as §2

[14] = qHTS of pediatric cancer cell lines to identify multiple opportunities for drug repurposing: Primary screen for LAN-5 cells (AID 1347100); conditions: LAN-5 neuroblastoma viability, CellTiter-Glo luminescence, 48 h; activity change, negative = cytotoxic: at 46 µM (top of the series)
Outline: as §3

[15] = qHTS of pediatric cancer cell lines to identify multiple opportunities for drug repurposing: Primary screen for RD cells (AID 1347104); also: nearly all actives have a fitted effect of over 55% in size
Outline: as §2

[16] = qHTS of pediatric cancer cell lines to identify multiple opportunities for drug repurposing: Primary screen for Saos-2 cells (AID 1347097); also: nearly all actives have a fitted effect of over 40% in size
Outline: as §2

[17] = qHTS of pediatric cancer cell lines to identify multiple opportunities for drug repurposing: Primary screen for BT-12 cells (AID 1347101); also: nearly all actives have a fitted effect of over 25% in size
Outline: as §4

[18] = qHTS of pediatric cancer cell lines to identify multiple opportunities for drug repurposing: Primary screen for MG 63 (6-TG R) cells (AID 1347105); conditions: MG 63 (6-TG R) viability, CellTiter-Glo, 48 h; activity change, negative = cytotoxic: at 46 µM (top of the series); also: nearly all actives have a fitted effect of over 50% in size; as to activity change, negative = cytotoxic: % is scaled to controls: 0 for no effect and ±100 for the full control effect
Outline: as §2

[19] = qHTS of pediatric cancer cell lines to identify multiple opportunities for drug repurposing: Primary screen for SK-N-MC cells (AID 1347093); conditions: SK-N-MC viability, CellTiter-Glo luminescence, 48 h; activity change, negative = cytotoxic: at 46 µM (top of the series);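 as to activity change, negative = cytotoxic: plate controls were DMSO neutral control for no effect and bortezomib for full effect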
Outline: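 Metabolically active cells were quantified by ATP-dependent luminescence (CellTiter-Glo, 15 min at room temperature) following 48 h treatment. Cells had been plated at 500-1,000 per well and settled for 5 h beforehand.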
Potency is read from the fitted curve at half-maximal effect; tags tell the direction and shape of the fitted curve.

| SMILES | Potency [1] | Potency [2] | Potency [3] | Potency [4] | Potency [5] | Potency [6] | Potency [7] | Potency [8] | Potency [9] | Potency [10] | Potency [11] | Potency [12] | Potency [13] | Potency [14] | Potency [15] | Potency [16] | Potency [17] | Potency [18] | Potency [19] | activity change, negative = cytotoxic [18] |
| --- | --- | --- | --- | --- | --- | --- | --- | --- | --- | --- | --- | --- | --- | --- | --- | --- | --- | --- | --- | --- |
| O=c1[nH]nc(OCCCc2ccc(Cl)cc2)c(NCc2cccnc2)c1Br | inconclusive: 29.6 µM [cytotoxic, single point] | active: 23.5 µM | inconclusive: 18.7 µM [cytotoxic, partial curve] | active: 23.5 µM | active: 23.5 µM | active: 19.3 µM | inconclusive: 33.2 µM [cytotoxic, single point] | active: 23.5 µM | active: 18.7 µM | inconclusive: 14.7 µM [cytotoxic, partial curve] | – | – | – | – | – | – | – | – | – | – |
| COc1ccc2cc1Oc1ccc(cc1)C[C@H]1c3cc(c(OC)cc3CCN1C)Oc1c(OC)c(OC)cc3c1[C@H](C2)N(C)CC3 | active: 18.7 µM | inconclusive: 11.8 µM [cytotoxic, partial curve] | inconclusive: 18.7 µM [cytotoxic, partial curve] | – | – | active: 17.2 µM | – | inconclusive: 14.8 µM [cytotoxic, partial curve] | inconclusive: 16.6 µM [cytotoxic, partial curve] | – | inconclusive: 21.7 µM [cytotoxic, partial curve] | inconclusive: 24.1 µM [cytotoxic, partial curve] | inconclusive: 33.2 µM [cytotoxic, single point] | inconclusive: 18.7 µM [cytotoxic, partial curve] | inconclusive: 18.7 µM [cytotoxic, partial curve] | – | – | – | – | – |
| COc1cc2c(cc1OC)[C@@H]1C(=O)c3ccc4c(c3O[C@@H]1CO2)C=CC(C)(C)O4 | active: 0.0743 µM | active: 18.7 µM | – | – | – | – | inconclusive: 8.33 µM [cytotoxic, full curve] | inconclusive: 2.96 µM [cytotoxic, partial curve] | inconclusive: 13.2 µM [cytotoxic, partial curve] | inconclusive: 1.31 µM [cytotoxic, full curve] | inconclusive: 0.344 µM [cytotoxic, full curve] | inconclusive: 17.1 µM [cytotoxic, partial curve] | – | – | active: 0.264 µM | active: 13.2 µM | active: 0.0273 µM | inconclusive: 0.187 µM [cytotoxic, full curve, poor fit] | – | – |
| CCCCCCOC(=O)N=C(N)c1ccc(NCc2nc3cc(C(=O)N(CCC(=O)OCC)c4ccccn4)ccc3n2C)cc1 | inactive | active: 18.7 µM | inconclusive: 29.6 µM [cytotoxic, single point] | – | inactive | inconclusive: 43.2 µM [cytotoxic, single point] | – | – | inconclusive: 26.4 µM [cytotoxic, single point] | – | – | – | – | active: 23.5 µM | inconclusive: 29.6 µM [cytotoxic, partial curve] | inconclusive: 37.2 µM [cytotoxic, single point] | inconclusive: 21.7 µM [cytotoxic, partial curve] | – | – | – |
| Cc1cccc(Nc2nc(N[C@@H]3CCCC[C@H]3N)ncc2C(N)=O)c1 | inconclusive: 7.43 µM [cytotoxic, partial curve] | inconclusive: 29.6 µM [cytotoxic, single point] | – | inconclusive: 18.7 µM [cytotoxic, partial curve, poor fit] | – | – | – | inconclusive: 6.62 µM [cytotoxic, partial curve] | active: 11.8 µM | – | – | – | inconclusive: 1.87 µM [cytotoxic, partial curve, poor fit] | – | – | – | active: 30.6 µM | – | – | – |
| NCc1c[nH]c(=S)n1[C@H]1CCc2c(F)cc(F)cc2C1 | inconclusive: 23.5 µM [cytotoxic, single point] | active: 26.4 µM | active: 23.5 µM | – | active: 16.6 µM | inconclusive: 21.7 µM [cytotoxic, partial curve] | inconclusive: 14.8 µM [cytotoxic, partial curve] | inconclusive: 18.7 µM [cytotoxic, partial curve] | inconclusive: 23.5 µM [cytotoxic, partial curve] | – | – | inconclusive: 42.9 µM [cytotoxic, single point] | – | – | – | active: 18.7 µM | inconclusive: 24.3 µM [cytotoxic, single point] | – | – | – |
| COc1cc(Nc2c(C#N)cnc3cc(OCCCN4CCN(C)CC4)c(OC)cc23)c(Cl)cc1Cl | active: 13.3 µM and active: 23.5 µM | inconclusive: 2.09 µM [cytotoxic, full curve] | inconclusive: 29.9 µM [cytotoxic, single point] | active: 21.1 µM and inconclusive: 14.8 µM [cytotoxic, partial curve] | inconclusive: 33.5 µM [cytotoxic, single point] and inconclusive: 29.6 µM [cytotoxic, single point] | – | inconclusive: 29.9 µM [cytotoxic, single point] | inconclusive: 18.8 µM [cytotoxic, single point] and inconclusive: 16.6 µM [cytotoxic, partial curve] | inconclusive: 18.8 µM [cytotoxic, single point] and inconclusive: 18.7 µM [cytotoxic, partial curve] | – | inconclusive: 1.37 µM [cytotoxic, full curve] | inconclusive: 42.9 µM [cytotoxic, single point] | inconclusive: 29.9 µM [cytotoxic, single point] and inconclusive: 1.18 µM [cytotoxic, full curve] | inconclusive: 26.6 µM [cytotoxic, single point] and inconclusive: 20.9 µM [cytotoxic, single point] | active: 15 µM and active: 14.8 µM | inconclusive: 29.9 µM [cytotoxic, single point] | active: 27.6 µM and inconclusive: 24.3 µM [cytotoxic, partial curve] | – | – | – |
| CC(=O)O[C@H]1C(=O)[C@@]2(C)C([C@H](OC(=O)c3ccccc3)[C@]3(O)C[C@H](OC(=O)[C@H](O)[C@@H](NC(=O)c4ccccc4)c4ccccc4)C(C)=C1C3(C)C)[C@]1(OC(C)=O)CO[C@@H]1C[C@@H]2O (stereo not given in full) | inconclusive: 0.0037 µM [cytotoxic, full curve, poor fit] | inconclusive: 4.69 µM [cytotoxic, full curve] | inconclusive: 0.0037 µM [cytotoxic, full curve] | – | inconclusive: 33.2 µM [cytotoxic, partial curve, poor fit] | – | – | inconclusive: 6.62 µM [cytotoxic, partial curve] | active: 0.0042 µM | inconclusive: 0.0147 µM [cytotoxic, full curve] | – | – | – | active: 0.001 µM | inconclusive: 0.0026 µM [cytotoxic, full curve] | inconclusive: 0.0332 µM [cytotoxic, full curve] | – | – | active: 0.001 µM | inconclusive: -42.2% |
| c1cc(OCCN2CCCCC2)cc(-c2n[nH]c3ccc(-c4ncn[nH]4)cc23)c1 | inconclusive: 23.5 µM [cytotoxic, single point] | inactive | – | inactive | – | – | – | inactive | – | – | – | inconclusive: 30.4 µM [cytotoxic, single point] | – | active: 14.8 µM | – | – | inconclusive: 19.3 µM [cytotoxic, partial curve, poor fit] | – | active: 16.6 µM | – |
| CN1C(C(=O)Nc2ccccn2)=C(O)c2sccc2S1(=O)=O | inactive | inactive | – | – | – | – | – | – | inactive | – | – | inconclusive: 24.1 µM [cytotoxic, partial curve] | – | – | – | – | – | – | inactive | – |
| CC(C)(N)c1ccc(-c2nc3ccccc3nc2-c2ccccc2)cc1 | inconclusive: 23.5 µM [cytotoxic, single point] | active: 23.5 µM | active: 18.7 µM | – | – | active: 7.69 µM | inconclusive: 29.6 µM [cytotoxic, single point] | inconclusive: 16.6 µM [cytotoxic, partial curve] | – | – | – | – | – | – | active: 16.6 µM | active: 1.05 µM | active: 24.3 µM | active: 23.5 µM | – | – |
| C[C@@H](NC(=O)c1ncnc(N)c1Cl)c1ncc(C(=O)Nc2cc(C(F)(F)F)c(Cl)cn2)s1 | inconclusive: 18.7 µM [cytotoxic, single point] | inconclusive: 16.6 µM [cytotoxic, partial curve] | – | – | – | inconclusive: 7.69 µM [cytotoxic, partial curve] | inconclusive: 23.5 µM [cytotoxic, partial curve, poor fit] | inconclusive: 16.6 µM [cytotoxic, partial curve, poor fit] | inconclusive: 6.62 µM [cytotoxic, partial curve] | – | – | – | – | – | inconclusive: 5.9 µM [cytotoxic, partial curve] | inconclusive: 5.9 µM [cytotoxic, full curve] | – | – | active: 16.6 µM | – |
| O=S(=O)(NCCNCC=Cc1ccc(Br)cc1)c1cccc2cnccc12 | inconclusive: 4.69 µM [cytotoxic, full curve] | active: 11.8 µM | – | inconclusive: 18.7 µM [cytotoxic, partial curve] | – | – | – | inconclusive: 14.8 µM [cytotoxic, partial curve] | inconclusive: 1.48 µM [cytotoxic, partial curve] | – | inconclusive: 24.3 µM [cytotoxic, partial curve] | active: 19.2 µM | inconclusive: 4.69 µM [cytotoxic, partial curve] | active: 20.9 µM | – | – | – | – | inconclusive: 0.418 µM [cytotoxic, full curve, poor fit] | – |
